PubChem BioAssay AID485294 (National Center for Advancing Translational Sciences (NCATS), 2010)
Among all 370,000 compounds or so, about 150 (0.041%) were called active. This list was built around the results that the source calls inconclusive (neither active nor inactive); the mix of calls is not that of the screen. Calls follow the shape of the dose curve; as a rule, active = well fitted inhibition curve with a large enough effect; inconclusive = small, poorly fitted or top-dose-only effect; inactive = flat fitted curve, though single readings scatter. Potencies of inconclusive entries are left out as doubtful fits.

Molecular target: Beta-lactamase (Escherichia coli (strain K12)) (UniProt P00811)
Assay: qHTS Inhibitors of AmpC Beta-Lactamase (assay with detergent); also: nearly all actives have a fitted effect of over 25% in size;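 as to activity change, negative = inhibition: 0% = no-compound wells and -100% = no-enzyme wells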
Details: AmpC hydrolysis of nitrocefin, absorbance 480 nm, 0.01% Triton; activity change, negative = inhibition: at 114 µM (top of the series)
Summary of the method: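 AmpC (5.3 nM in the dispensed reagent) in 20 mM phosphate pH 7.0 with 0.01% (detergent screen) or 0.0001% Triton X-100 was preincubated with compounds for 15 min at room temperature. Nitrocefin was then added from an 800 uM solution, and hydrolysis was followed at 480 nm.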
Potency is read from the fitted curve at half-maximal effect; tags tell the direction and shape of the fitted curve.

UniProt P00811, sequence (P00811 whole entry, looked up): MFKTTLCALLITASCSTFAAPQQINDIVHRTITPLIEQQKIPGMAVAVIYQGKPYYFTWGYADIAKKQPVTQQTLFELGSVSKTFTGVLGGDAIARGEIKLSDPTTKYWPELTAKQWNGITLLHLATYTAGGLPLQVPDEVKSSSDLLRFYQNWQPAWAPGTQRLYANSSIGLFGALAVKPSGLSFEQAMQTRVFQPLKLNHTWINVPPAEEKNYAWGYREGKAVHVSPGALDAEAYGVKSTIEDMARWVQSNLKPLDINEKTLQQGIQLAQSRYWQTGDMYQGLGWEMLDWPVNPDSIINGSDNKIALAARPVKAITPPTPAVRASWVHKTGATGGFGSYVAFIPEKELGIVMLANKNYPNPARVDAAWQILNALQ

Row | SMILES | Potency | activity change, negative = inhibition
1 | COc1ccc(S(=O)(=O)N2CCN(C(=O)C3CC3)CC2)cc1 | inconclusive [inhibitor, full curve, poor fit] | –
2 | Cc1ccsc1/C=N/NC(=O)CN1CCN(S(=O)(=O)c2ccc(Br)cc2)CC1 | inconclusive [inhibitor, partial curve] | –
3 | CCOC(=O)N1CCC(NC(=O)CCN2C(=O)COc3ccccc32)CC1 | inconclusive [inhibitor, full curve, poor fit] | –
4 | O=S(=O)(c1ccc(OCC(O)CN2CCN(c3ccc(F)cc3)CC2)cc1)N1CCOCC1 (stereo unspecified) | inconclusive [inhibitor, full curve, poor fit] | –
5 | COc1ccc(-c2cc(=O)oc3cc(OCC(=O)NCCCn4ccnc4)ccc23)cc1 | inconclusive [inhibitor, full curve, poor fit] | –
6 | COc1ccccc1OCC(=O)Nc1cccc(S(=O)(=O)NC2=NCCCCC2)c1 | inconclusive [inhibitor, partial curve] | –
7 | COc1cc2cc(C(c3nnnn3Cc3ccc(F)cc3)N3CCCCCC3)c(=O)[nH]c2cc1OC (stereo unspecified) | inconclusive [inhibitor, full curve, poor fit] | –
8 | CCCn1c(C(O)c2ccc(OCC)cc2)nc2ccccc21 (stereo unspecified) | inconclusive [inhibitor, full curve, poor fit] | –
9 | Cc1ccc(CS(=O)(=O)CCC(=O)N2CCC3(CC2)OCCO3)cc1 | inconclusive [inhibitor, full curve, poor fit] | –
10 | COc1ccc(C(=O)N2CCOCC2)cc1S(=O)(=O)N1CCCc2ccccc21 | – | inactive: 0.28%
11 | COc1cccc(-n2c(=O)c3c(C)c(C)sc3n(CC(=O)NCc3ccccc3)c2=O)c1 | – | inactive: 21%
12 | O=C(NCCc1ccc2c(c1)OCCO2)c1cccc(F)c1 | inconclusive [inhibitor, full curve, poor fit] | –
13 | CC1(C)CC(=O)c2sc(N3CCCCC3)nc2C1 | inconclusive [inhibitor, partial curve, poor fit] | –
14 | CCCCN(C(=O)c1cccc(-n2cccc2)c1)c1c(N)n(Cc2ccccc2)c(=O)[nH]c1=O | inconclusive [inhibitor, full curve, poor fit] | –
15 | CCN(CC)CCN1C(=O)c2ccccc2NC1c1cc(OC)c(OC)c(OC)c1 (stereo unspecified) | inconclusive [inhibitor, partial curve, poor fit] | –
16 | CCC(C)(C)NC(=O)CN(Cc1ccc2c(c1)OCO2)C(=O)CCC(=O)Nc1ccccn1 | inconclusive [inhibitor, single point] | –
17 | CCOC(=O)C1=C(C)NC2=C(C(=O)c3ccccc32)C1c1cccnc1 (stereo unspecified) | inconclusive [inhibitor, single point] | –
18 | O=C1OC(c2ccco2)=N/C1=C\c1ccc(-c2cccc(C(F)(F)F)c2)o1 | inconclusive [inhibitor, full curve] | –
19 | c1ccc(CCc2nc(-c3ccc(-n4cccc4)cc3)no2)cc1 | inconclusive [inhibitor, full curve, poor fit] | –
20 | COc1ccc(C(C)=O)cc1CC(C(=O)c1ccc(F)cc1)N(C)C (stereo unspecified) | – | inactive: 4.75%
21 | Cc1cc(N2CCOCC2)nc(C(C)C)n1 | inconclusive [inhibitor, full curve, poor fit] | –

Row | SMILES | Potency | activity change, negative = inhibition
22 | O=[N+]([O-])c1ccc(Cl)cc1CNc1ccc(F)c(F)c1 | inconclusive [inhibitor, partial curve, poor fit] | –
23 | O=C(c1ccco1)N(CC1CCCO1)c1nc(-c2ccccc2)cs1 (stereo unspecified) | inconclusive [inhibitor, full curve, poor fit] | –
24 | O=C(CCc1nc2ccccc2[nH]c1=O)OCC(=O)c1cccc2ccccc12 | inconclusive [inhibitor, full curve, poor fit] | –
25 | COc1ccc(/C=C/c2nc(C#N)c(NCCc3ccccc3)o2)cc1OC | – | inactive: -0.278%
26 | O=C(NNC(=O)c1ccc(Cl)cc1Cl)c1csc(-c2cccnc2)n1 | – | inactive: -1.9%
27 | COc1cc(NC(=O)CSc2nc3c(C)ccc(C)c3cc2C)c(C(=O)O)cc1OC | inconclusive [inhibitor, full curve] | –
28 | COc1cccc(-n2c(C)nn(CCOc3ccccc3)c2=O)c1 | inconclusive [inhibitor, full curve, poor fit] | –
29 | Cc1cc(=O)[nH]c(SCn2nnc3ccccc3c2=O)n1 | – | inactive: -10.1%
30 | CCC1=NN(C(=O)CCc2ccccc2O)C(O)(C(F)(F)F)C1 (stereo unspecified) | inconclusive [inhibitor, partial curve, poor fit] | –
31 | COc1ccccc1NC(=O)Nc1ccccc1C#N | inconclusive [inhibitor, single point] | –
32 | Cc1cc(=O)[nH]c(N/N=C/c2c(C)nn(-c3ccccc3)c2C)n1 | inconclusive [inhibitor, single point] | –
33 | O=C(NCCc1ccccc1)c1ccccc1F | – | inactive: 5.63%
34 | CC1(C)CC(=O)C2=C(C1)OC(N)=C(C#N)C2c1ccc2c(c1)OCO2 (stereo unspecified) | – | inactive: -17%
35 | Cc1cc(C)c(S(=O)(=O)N(C)CC(=O)NCC2CCCO2)c(C)c1 (stereo unspecified) | inconclusive [inhibitor, partial curve] | –
36 | Cc1cccc(NC(=O)C(C)Oc2ccccc2C)n1 (stereo unspecified) | inconclusive [inhibitor, full curve, poor fit] | –
37 | O=C(Nc1ccnn1C1CCN(C2CCC2)CC1)c1ccccc1Cl | inconclusive [inhibitor, full curve] | –
38 | CCS(=O)(=O)Nc1cccc(C2=NN(S(=O)(=O)c3ccc(C)cc3)C(c3cccs3)C2)c1 (stereo unspecified) | inconclusive [inhibitor, full curve] | –
39 | COc1cccc(CN2CCNC(=O)C2CC(=O)NCC2CCOCC2)c1 (stereo unspecified) | – | inactive: 0.758%
40 | COc1ccc(CCN(C(=O)C(F)(F)F)C(C(=O)NC2CCCCC2)c2ccc(C)s2)cc1OC (stereo unspecified) | – | inactive: -3.01%
41 | O=C(Nc1ccccc1)N1N=C(c2ccc(F)cc2)CC1c1ccc(F)cc1 (stereo unspecified) | inconclusive [inhibitor, single point] | –
